# Reference: PubChem BioAssay (NCATS)
# “And” between values parts separate entries of the source, which are not always exact repeats. Identical values can stand only once. The shares of active, inactive and inconclusive entries below differ from those in the screen. For some assays here: Potencies beside an inconclusive call are fits to weak or partial responses and may not hold up. Some compounds were tested as several samples or in several runs, with calls that do not always agree. The source made the active and inactive calls. Unless noted, calls come from the whole dose curve; as a rule, active = well fitted curve in the direction sought with a large enough effect; inconclusive = small, poorly fitted or top-dose-only effect, or another doubt; inactive = no such curve, though single readings can be large; an effect the other way counts as inactive or inconclusive.
# Columns and labels:
# [1] = Primary qHTS for small molecule stabilizers of the endoplasmic reticulum resident proteome: Secreted ER Calcium Modulated Protein (SERCaMP) assay (AID 1508630); conditions: SH-SY5Y GLuc-SERCaMP (Gaussia luciferase released on ER calcium loss) secretion, thapsigargin, luminescence; activity change, negative = inhibition: at 38.4 µM (top of the series); note: potency is the fitted concentration of half-maximal effect; for activity change, negative = inhibition: % is set by controls: 0 for no effect and ±100 for the full control effect
# Method in brief: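 GLuc-SERCaMP-expressing SH-SY5Y cells, pretreated 16 h with compound, are challenged with thapsigargin to empty ER calcium stores; after 4 h, coelenterazine is added directly to the medium and luminescence is imaged.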
# [2] = A High-Content qHTS Against Drug Library for the Identification of Small Molecules that Inhibit DYT1 Early Onset Primary Dystonia-Associated Cell Pathology (AID 1645839; calls by dose curve; note: potency is the fitted concentration of half-maximal effect)
# Method in brief: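 Flp-In T-REx 293 cells with tetracycline-inducible EGFP-delE hTOR1A (WT EGFP-hTOR1A as reference), 800 cells/well; compound added with tetracycline, 48 h at 37 C. Fixed, permeabilized cells imaged; %pathology (punctate TorsinA) primary, cell count counterscreen.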
# [3] = Primary qHTS for inhibitors of nuclear receptor binding SET domain protein 2 (NSD2) in an isogenic RCH-ACV NSD2 p.E1099K mutant (9B) (AID 1645876); note: nearly all actives have a fitted effect of over 70% in size; note: potency is the fitted concentration of half-maximal effect
# [4] = molecular target: Rap guanine nucleotide exchange factor 3 (Homo sapiens) (UniProt O95398); assay: Confirmatory qHTS for agonist of cAMP-regulated guanine nucleotide exchange factor 3 (EPAC1) (AID 1645881);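 note: EPAC1 catalysed release of BODIPY-GDP from Rap1B seen as fluorescence loss; 100% = effect of cAMP agonist control; nearly all actives have a fitted effect of over 75% in size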
# [5] = molecular target: Rap guanine nucleotide exchange factor 4 (Homo sapiens) (UniProt Q8WZA2); assay: Confirmatory qHTS for antagonist of cAMP-regulated guanine nucleotide exchange factor 4 (EPAC2) (AID 1645885); note: nearly all actives have a fitted effect of over 25% in size; note: potency is the fitted concentration of half-maximal effect; for activity change, negative = inhibition: % is set by controls: 0 for no effect and ±100 for the full control effect
# [6] = molecular target: Rap guanine nucleotide exchange factor 3 (Homo sapiens) (UniProt O95398); assay: Counterscreen qHTS for agonist of cAMP-regulated guanine nucleotide exchange factor 3 (EPAC1) (AID 1645889); note: potency is the fitted concentration of half-maximal effect; nearly all actives have a fitted effect of over 40% in size
# Method in brief: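 Rap1B–BODIPY-GDP (250 nM) with 50 uM GDP; compounds pin-transferred to 9.74 nM–152 uM final (activator) or from 7.32 nM upwards (inhibitor). Fluorescence Ex/Em 480/540 nm read at 5 and 30 min, then after adding cAMP or buffer, at room temperature.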
# [7] = Primary qHTS for inhibitors of nuclear receptor binding SET domain protein 2 (NSD2) in an RCH-ACV wild type WT cells (2C) (AID 1645877); conditions: activity change, negative = cell killing: at 44.9 µM (top of the series) unless noted; note: nearly all actives have a fitted effect of over 70% in size; note: potency is the fitted concentration of half-maximal effect; for activity change, negative = cell killing: % is set by controls: 0 for no effect and ±100 for the full control effect
# [8] = molecular target: Cytochrome P450 2C9 (Homo sapiens) (UniProt P11712); assay: Cytochrome P450 family 2 subfamily C member 9 (CYP2C9) small molecule antagonists: luciferase biochemical (cell-free) qHTS assay (AID 1645842; active = well fitted curve in the direction sought with a large enough effect in the repeat runs; inconclusive = weak or mixed curves; inactive = no such curve, though single readings can be large; an effect the other way counts as inactive or inconclusive; note: nearly all actives have a fitted effect of over 55% in size; note: potency is the fitted concentration of half-maximal effect; for activity change, negative = inhibition: % is set by controls: 0 for no effect and ±100 for the full control effect)
# Method in brief: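 Luminescence, after 20 min with luciferin detection reagent, reflected CYP2C9 turnover during a 1 h NADPH-driven reaction at 37C. Enzyme-substrate mix contained 0.4% bovine serum albumin and was preincubated with compound 10 min at room temperature.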
# [9] = molecular target: N-terminal Xaa-Pro-Lys N-methyltransferase 1 (Homo sapiens) (UniProt Q9BV86); assay: Confirmatory qHTS for Inhibitors of N-terminal methyltransferase 1 (NTMT1): MTaseGlo Assay (AID 1645874); note: potency is the fitted concentration of half-maximal effect; nearly all actives have a fitted effect of over 65% in size
# Method in brief: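 qHTS format: NTMT1 125 nM, SAM 100 uM, peptide SPKRIA 1 uM final; 15 min compound preincubation, 30 min reaction at room temperature. MTase-Glo luminescence.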
# [10] = NCATS anti-infectives library activity on HEK293 viability as a counter-qHTS vs the C. elegans viability qHTS (AID 1745854);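 note: potency is the fitted concentration of half-maximal effect; HEK293 cells exposed to compounds for 24 hr before the viability read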
# Method in brief: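 HEK293 cells (1,500/well) exposed 24 hr at 37C to 1:5 titrations, up to 41.7 uM final; counter-screen to a C. elegans viability qHTS. Viability by CellTiter-Glo luminescence after 10 min at room temperature; digitonin as control.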
# Papain (Carica papaya) = Papain (Carica papaya) (UniProt P00784); assay: Primary qHTS assay for inhibitors of the protease papain (AID 1645873);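 note: papain turnover of Z-FR-AMC read as the AMC fluorescence gain over 10 min; potency is the fitted concentration of half-maximal effect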
# [11] = molecular target: Rap guanine nucleotide exchange factor 3 (Homo sapiens) (UniProt O95398); assay: Confirmatory qHTS for antagonist of cAMP-regulated guanine nucleotide exchange factor 3 (EPAC1) (AID 1645880);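 note: plate controls were DMSO only for no effect and full effect of the ATA control for full effect; nearly all actives have a fitted effect of over 55% in size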
# Method in brief: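 Nucleotide exchange uses 100 nM EPAC1, 250 nM RAP1B-BODIPY-GDP and 50 uM GDP, with compounds in a concentration-titration series. After 5 min at room temperature, fluorescence (480 nm ex/540 nm em) is read every 5 min for 30 min. Data are normalized to control ATA and DMSO.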
# [12] = NCATS anti-infectives library activity on the primary C. elegans qHTS viability assay (AID 1745855; calls by dose curve)
# Method in brief: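 Viability read-out is GFP fluorescence of PE254-GFP-FLuc C. elegans, measured by laser cytometry (488 nm) at day 0, 3 and 7. Ten L1 worms per well were incubated 7 days at 21 °C with compounds and bacterial capsules in S medium.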
# Tags give direction and shape of the fitted curve.
# UniProt O95398, sequence (O95398 whole entry, looked up): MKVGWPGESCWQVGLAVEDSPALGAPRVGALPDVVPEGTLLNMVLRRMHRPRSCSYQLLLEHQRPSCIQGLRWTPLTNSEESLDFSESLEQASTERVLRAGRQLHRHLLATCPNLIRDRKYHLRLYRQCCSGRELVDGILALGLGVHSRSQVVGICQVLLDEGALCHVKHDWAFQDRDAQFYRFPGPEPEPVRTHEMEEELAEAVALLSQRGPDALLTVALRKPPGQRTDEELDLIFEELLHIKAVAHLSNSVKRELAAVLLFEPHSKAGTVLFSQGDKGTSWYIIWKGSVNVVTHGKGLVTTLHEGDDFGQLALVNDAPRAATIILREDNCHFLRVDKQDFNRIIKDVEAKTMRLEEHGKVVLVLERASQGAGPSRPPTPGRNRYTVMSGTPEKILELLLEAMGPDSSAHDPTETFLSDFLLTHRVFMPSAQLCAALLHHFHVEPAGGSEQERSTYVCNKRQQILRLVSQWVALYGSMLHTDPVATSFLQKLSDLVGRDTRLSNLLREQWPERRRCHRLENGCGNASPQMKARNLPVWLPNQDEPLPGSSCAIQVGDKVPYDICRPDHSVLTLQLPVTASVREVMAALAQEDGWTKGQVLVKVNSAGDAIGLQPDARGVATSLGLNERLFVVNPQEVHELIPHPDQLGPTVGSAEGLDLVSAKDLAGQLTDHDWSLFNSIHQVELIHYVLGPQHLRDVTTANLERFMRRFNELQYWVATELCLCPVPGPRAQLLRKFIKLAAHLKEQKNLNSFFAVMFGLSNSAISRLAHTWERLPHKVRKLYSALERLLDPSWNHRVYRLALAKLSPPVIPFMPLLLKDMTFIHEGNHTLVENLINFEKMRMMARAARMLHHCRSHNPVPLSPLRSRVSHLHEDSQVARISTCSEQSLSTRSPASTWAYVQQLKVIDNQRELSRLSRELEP
# UniProt P11712, sequence (P11712 whole entry, looked up): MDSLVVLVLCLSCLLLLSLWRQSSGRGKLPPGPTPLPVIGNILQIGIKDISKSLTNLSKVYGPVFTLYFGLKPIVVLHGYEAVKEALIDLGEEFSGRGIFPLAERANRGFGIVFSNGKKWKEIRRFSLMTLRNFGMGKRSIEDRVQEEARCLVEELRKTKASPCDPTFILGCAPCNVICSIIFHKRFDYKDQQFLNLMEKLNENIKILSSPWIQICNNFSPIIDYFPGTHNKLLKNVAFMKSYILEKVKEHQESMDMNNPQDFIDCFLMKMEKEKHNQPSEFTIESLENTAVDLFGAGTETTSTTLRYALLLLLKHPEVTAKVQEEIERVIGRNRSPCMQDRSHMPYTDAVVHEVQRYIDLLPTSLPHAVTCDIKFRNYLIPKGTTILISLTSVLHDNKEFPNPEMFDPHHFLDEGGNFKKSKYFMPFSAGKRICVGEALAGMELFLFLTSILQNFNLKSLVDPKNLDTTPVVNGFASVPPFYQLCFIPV
# UniProt P00784, sequence (P00784 whole entry, looked up): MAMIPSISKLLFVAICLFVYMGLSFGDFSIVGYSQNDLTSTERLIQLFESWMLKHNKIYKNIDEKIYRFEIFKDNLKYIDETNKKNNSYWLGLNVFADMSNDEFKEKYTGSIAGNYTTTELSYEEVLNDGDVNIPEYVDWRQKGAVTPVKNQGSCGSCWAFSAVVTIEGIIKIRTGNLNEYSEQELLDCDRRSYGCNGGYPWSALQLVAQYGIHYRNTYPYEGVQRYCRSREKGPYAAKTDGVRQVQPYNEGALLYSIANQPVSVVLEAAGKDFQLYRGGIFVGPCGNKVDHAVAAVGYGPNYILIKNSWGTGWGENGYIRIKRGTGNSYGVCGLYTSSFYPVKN
# UniProt Q8WZA2, sequence (Q8WZA2 whole entry, looked up): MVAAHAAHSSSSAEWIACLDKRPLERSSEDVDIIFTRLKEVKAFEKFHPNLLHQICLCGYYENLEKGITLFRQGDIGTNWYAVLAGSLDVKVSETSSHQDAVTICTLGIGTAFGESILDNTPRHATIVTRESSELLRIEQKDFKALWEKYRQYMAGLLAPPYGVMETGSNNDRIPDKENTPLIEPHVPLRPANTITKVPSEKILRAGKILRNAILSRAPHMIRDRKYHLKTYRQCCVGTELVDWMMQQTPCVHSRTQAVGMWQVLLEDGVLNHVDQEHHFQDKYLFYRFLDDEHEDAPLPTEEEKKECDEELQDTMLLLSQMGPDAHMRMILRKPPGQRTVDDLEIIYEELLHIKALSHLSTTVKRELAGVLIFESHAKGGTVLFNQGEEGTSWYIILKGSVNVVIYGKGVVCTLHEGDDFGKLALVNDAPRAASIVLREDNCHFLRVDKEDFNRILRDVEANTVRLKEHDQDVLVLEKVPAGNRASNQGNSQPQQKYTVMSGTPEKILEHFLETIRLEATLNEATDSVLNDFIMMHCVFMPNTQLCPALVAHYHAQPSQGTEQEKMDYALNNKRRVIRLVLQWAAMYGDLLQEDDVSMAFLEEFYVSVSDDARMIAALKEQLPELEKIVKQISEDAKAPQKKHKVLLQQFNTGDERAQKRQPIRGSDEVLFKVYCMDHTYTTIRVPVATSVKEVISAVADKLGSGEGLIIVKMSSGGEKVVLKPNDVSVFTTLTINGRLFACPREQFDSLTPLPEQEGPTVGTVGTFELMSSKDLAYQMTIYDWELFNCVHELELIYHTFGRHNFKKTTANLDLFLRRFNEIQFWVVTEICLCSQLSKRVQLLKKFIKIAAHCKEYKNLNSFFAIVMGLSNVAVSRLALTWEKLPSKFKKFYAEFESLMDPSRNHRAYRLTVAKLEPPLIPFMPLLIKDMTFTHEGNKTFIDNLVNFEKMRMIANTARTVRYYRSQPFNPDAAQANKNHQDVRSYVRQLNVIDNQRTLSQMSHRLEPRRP
# UniProt Q9BV86, sequence (Q9BV86 whole entry, looked up): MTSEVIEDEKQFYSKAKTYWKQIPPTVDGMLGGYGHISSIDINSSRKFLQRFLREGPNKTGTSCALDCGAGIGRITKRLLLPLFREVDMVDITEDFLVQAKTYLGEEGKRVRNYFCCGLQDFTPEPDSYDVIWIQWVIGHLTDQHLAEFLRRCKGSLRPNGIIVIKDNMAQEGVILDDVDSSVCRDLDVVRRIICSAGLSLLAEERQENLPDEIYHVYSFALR
structure (smiles),measurement,setting,value
C/C=C(/C(=C/C)c1ccc(O)cc1)c1ccc(O)cc1,Potency,[1],inactive
same,Potency,[2],"inconclusive: 35.5 µM [inhibitor, single point]"
same,Potency,[3],"inconclusive: 29.9 µM [inhibitor, single point]"
same,Potency,[4],inactive
same,Potency,[5],active: 22.1 µM
same,"activity change, negative = inhibition",[5],inactive: -2.47% [at 12.7 µM]
same,Potency,[6],"inconclusive: 50.1 nM [activator, full curve, poor fit]"
CN(C)CCCOc1nn(Cc2ccccc2)c2ccccc12,Potency,[1],inactive
same,Potency,[2],"inconclusive: 22.4 µM [inhibitor, single point]"
same,Potency,[3],active: 9.44 µM and active: 25.8 µM
COc1ccc(-n2nc(C(N)=O)c3c2C(=O)N(c2ccc(N4CCCCC4=O)cc2)CC3)cc1,Potency,[1],inactive
same,Potency,[3],inactive
same,"activity change, negative = cell killing",[7],inconclusive: -37.1% [inhibitor]
COC(=O)c1ccc(O)cc1,Potency,[1],inactive
same,Potency,[8],inactive
COc1ccc(S(=O)(=O)Nc2cc(-c3c(O)ccc4ccccc34)c(O)c3ccccc23)cc1,Potency,[1],inactive
same,Potency,[3],"inconclusive: 3.32 µM [inhibitor, full curve, poor fit]"
same,Potency,[7],"inconclusive: 4.17 µM [inhibitor, full curve, poor fit]"
Nc1[nH]nc2nnc(-c3c(-c4ccccc4)nn4ccccc34)cc12,Potency,[1],inactive
same,Potency,[9],active: 11.2 µM
same,Potency,[3],"inconclusive: 25.8 µM [inhibitor, single point] and inconclusive: 20.6 µM [inhibitor, single point]"
same,Potency,[7],"inconclusive: 20.5 µM [inhibitor, single point] and inconclusive: 18.4 µM [inhibitor, single point]"
same,Potency,[10],"inconclusive: 14.1 µM [cytotoxic, partial curve, poor fit]"
C[N+]1(C)CCCC(OC(=O)C(O)(c2ccccc2)c2ccccc2)C1 (centres undefined),Potency,[1],"inconclusive: 28.2 µM [inhibitor, single point]"
same,Potency,[3],inactive
CN(Cc1cnc2nc(N)nc(N)c2n1)c1ccc(C(=O)N[C@@H](CCC(=O)O)C(=O)O)cc1,Potency,[1],inactive
same,Potency,Papain (Carica papaya),"inconclusive: 3.55 µM [inhibitor, full curve]"
O=C1c2ccccc2C(=O)C1c1ccccc1,Potency,[1],inactive
same,Potency,[7],inactive
CCCc1nc(C)c2c(=O)[nH]c(-c3cc(S(=O)(=O)N4CCN(CC)CC4)ccc3OCC)nn12,Potency,[1],"inconclusive: 10 µM [inhibitor, partial curve, poor fit]"
same,Potency,[7],inactive
Nc1nc2c(c(=O)[nH]1)N(C=O)[C@H](CNc1ccc(C(=O)N[C@@H](CCC(=O)O)C(=O)O)cc1)CN2,Potency,[1],inactive
same,Potency,[7],"inconclusive: 10.5 µM [inhibitor, single point]"
COc1cc2ncnc(Nc3cccc(Cl)c3)c2cc1OC,Potency,[1],"inconclusive: 28.2 µM [inhibitor, single point]"
same,Potency,[3],"inconclusive: 25.9 µM [inhibitor, single point]"
same,Potency,[7],"inconclusive: 29.1 µM [inhibitor, single point]"
CCCc1cc(C(N)=S)ccn1,Potency,[1],"inactive and inconclusive: 6.7 nM [inhibitor, full curve, poor fit]"
same,Potency,[3],inactive
CCc1cc(Nc2nccc(-c3c(-c4ccc(OC)c(C(=O)Nc5c(F)cccc5F)c4)nc4ccccn34)n2)c(OC)cc1N1CCC(N2CCN(S(C)(=O)=O)CC2)CC1,Potency,[1],active: 0.006 µM
same,Potency,[3],"inconclusive: 18.4 µM [inhibitor, partial curve] and inconclusive: 2.35 µM [inhibitor, full curve]"
CC(C)C[C@H]1C(=O)N2CCC[C@H]2[C@]2(O)O[C@](NC(=O)[C@@H]3C=C4c5cccc6[nH]c(Br)c(c56)C[C@H]4N(C)C3)(C(C)C)C(=O)N12,Potency,[1],"inconclusive: 28.2 µM [inhibitor, single point]"
same,Potency,Papain (Carica papaya),"inconclusive: 11.2 µM [inhibitor, partial curve, poor fit]"
same,Potency,[11],inactive
NC(=O)c1cccc(N)c1,"activity change, negative = inhibition",[1],inconclusive: -34.3% [inhibitor]
same,Potency,Papain (Carica papaya),"inconclusive: 3.98 µM [inhibitor, single point]"
same,Potency,[3],inactive
CC(C)c1cnn2c(NCc3ccccc3)cc(NCCCCCCN)nc12,Potency,[1],"inconclusive: 14.9 µM [inhibitor, partial curve, poor fit]"
same,Potency,[7],active: 20.9 µM
CC(N[C@H]1CCCC[C@H]1NC(=O)c1ccc(Cl)cc1)c1cccc2ccccc12 (some centres undefined),Potency,[1],inactive
same,Potency,[3],active: 6.61 µM
CC(=O)OCC(=O)[C@@]1(O)[C@H](C)C[C@H]2[C@@H]3CCC4=CC(=O)C=C[C@]4(C)[C@@]3(F)[C@@H](O)C[C@@]21C,Potency,[1],inactive
same,Potency,[8],"inconclusive: 30.9 µM [inhibitor, single point]"
same,Potency,[3],"inconclusive: 750 nM [inhibitor, partial curve] and inconclusive: 290 nM [inhibitor, partial curve, poor fit]"
CN1CCN(C(=O)C2CCCCC2)CC1,Potency,[1],"inconclusive: 2.24 µM [inhibitor, full curve, poor fit]"
same,Potency,[8],inactive
same,Potency,[3],inactive
C=CCNC(N)=S,Potency,[1],"inconclusive: 10 µM [inhibitor, partial curve, poor fit]"
same,Potency,[3],inactive
Cc1c(NC(=O)c2cccnc2)c(=O)n(-c2ccccc2)n1C,Potency,[1],"inconclusive: 2.24 µM [inhibitor, full curve, poor fit]"
same,Potency,[3],"inconclusive: 29.9 µM [inhibitor, single point]"
same,Potency,[7],"inconclusive: 33.5 µM [inhibitor, single point]"
COc1ccc(-c2oc3c(CC=C(C)C)c(O)cc(O)c3c(=O)c2O)cc1,Potency,[1],inactive
same,Potency,[7],inactive
Cc1nn(Cc2ccccc2Cl)c(C)c1CN(C)CC(O)COc1ccc(Cl)cc1 (centres undefined),Potency,[1],inactive
same,Potency,[7],active: 14.8 µM
COc1ccccc1OCC(O)COC(N)=O (centres undefined),Potency,[1],"inconclusive: 11.2 µM [inhibitor, partial curve, poor fit]"
same,Potency,[8],inactive
same,Potency,[12],inactive
CNCCC=C1c2ccccc2CCc2ccccc21,Potency,[1],inactive
same,Potency,[7],active: 20.6 µM
Cc1ccc(S(=O)(=O)Nc2cc(Cl)ccc2C(=O)Nc2nc(-c3ccccc3)cs2)cc1,Potency,[1],"inconclusive: 5.3 µM [inhibitor, full curve]"
same,Potency,[3],inactive
NC(N)=NC(N)=NCCc1ccccc1,Potency,[1],"inconclusive: 13.3 µM [inhibitor, partial curve]"
same,Potency,[3],"inconclusive: 10.6 µM [inhibitor, partial curve] and inconclusive: 10.5 µM [inhibitor, partial curve]"
same,Potency,[7],"inconclusive: 8.41 µM [inhibitor, partial curve] and inconclusive: 14.8 µM [inhibitor, partial curve]"
COc1ccccc1[C@H](c1cccc2ccccc12)[C@@](C)(C#N)C(=O)N1CCC(c2cccc(C(F)(F)F)c2)CC1,Potency,[1],"inconclusive: 8.41 µM [inhibitor, full curve, poor fit]"
same,Potency,[7],inactive
CCn1cc(C(=O)O)c(=O)c2cc(F)c(N3CCN(C)CC3)cc21,Potency,[1],"inconclusive: 3.16 µM [inhibitor, full curve, poor fit]"
same,Potency,[3],inactive
same,Potency,[7],inactive
CCN1CCCC1=O,Potency,[1],"inconclusive: 11.2 µM [inhibitor, partial curve, poor fit]"
same,Potency,[8],inactive
same,Potency,[3],inactive
N=C(N)c1ccc(OCCCCCOc2ccc(C(=N)N)cc2)cc1,Potency,[1],"inconclusive: 2.82 µM [inhibitor, full curve, poor fit]"
same,Potency,[9],"inconclusive: 43.5 µM [inhibitor, single point]"
CC(=O)OCC(=O)[C@@]1(OC(C)=O)[C@@H](C)C[C@H]2[C@@H]3C[C@H](F)C4=CC(=O)C=C[C@]4(C)[C@@]3(F)[C@@H](O)C[C@@]21C,Potency,[1],inactive
same,Potency,[8],"inconclusive: 15.5 µM [inhibitor, partial curve]"
same,Potency,[3],"inconclusive: 18.8 µM [inhibitor, partial curve, poor fit]"
COc1cc2ncnc(Nc3cccc(Br)c3)c2cc1OC,Potency,[1],"inconclusive: 11.2 µM [inhibitor, single point]"
same,Potency,[3],"inconclusive: 18.4 µM [inhibitor, single point] and inconclusive: 8.33 µM [inhibitor, single point]"
same,Potency,[7],"inconclusive: 29.1 µM [inhibitor, single point] and inconclusive: 5.9 µM [inhibitor, partial curve]"
O=C(Nc1ncc([N+](=O)[O-])s1)c1cccs1,Potency,[1],"inconclusive: 2.51 µM [inhibitor, full curve, poor fit]"
same,Potency,[3],"inconclusive: 29.9 µM [inhibitor, single point]"
CCCc1ncc(C[n+]2ccccc2C)c(N)n1,Potency,[1],"inconclusive: 2 µM [inhibitor, full curve, poor fit]"
same,Potency,[8],inactive
same,Potency,[3],"inconclusive: 33.5 µM [inhibitor, single point]"
same,Potency,[7],"inconclusive: 29.9 µM [inhibitor, single point]"
NC1=N[C@H]2[C@H](CS[C@H]2CCCCC(=O)O)N1,Potency,[1],inconclusive: 0.0007 µM [inhibitor]
same,"activity change, negative = cell killing",[7],inconclusive: -34% [inhibitor] [at 17.3 µM]
CCOC(=O)[C@H](CCc1ccccc1)N[C@H]1CS[C@H](c2cccs2)CN(CC(=O)O)C1=O,Potency,[1],"inconclusive: 5.62 µM [inhibitor, full curve, poor fit]"
same,Potency,[3],inactive
CC1=C(C/C=C(\C)CCC[C@H](C)CCC[C@H](C)CCCC(C)C)C(=O)c2ccccc2C1=O,Potency,[1],"inconclusive: 2.82 µM [inhibitor, full curve, poor fit]"
same,Potency,[8],"inconclusive: 38.9 µM [inhibitor, single point]"
same,Potency,[7],inactive
